# Results reported in PubChem BioAssay AID588855 (National Center for Advancing Translational Sciences (NCATS), 2011).
# The campaign covered roughly 410,000 compounds. About 5,000 (1.2%) were called active. The inconclusive results got no clear call from the source; some entries with a clear call stand among them for comparison. The call rests on the fitted dose curve; in most records, active means well fitted inhibition curve with a large enough effect; inconclusive means small, poorly fitted or top-dose-only effect; inactive means no such curve, though single readings can be large or run the other way. Potencies beside an inconclusive call are fits to weak or partial responses and may not hold up.
# Experiment: qHTS for Inhibitors of TGF-b; further: nearly all actives have a fitted effect of over 65% in size
# Conditions: HepG2 CAGA-GFP TGF-b/SMAD3 reporter, GFP fluorescence, 18 h, TGF-beta stimulated, 500 pg/mL final; series mostly up to 46.1 µM; activity, negative = inhibition: at the top concentration
# In short: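 First, reporter cells (HEPG2 CAGA-GFP) rested 2 h at 37 degrees C. Next, compounds were pinned in and TGF-beta added to 500 pg/mL final. After 18 h, GFP was imaged per cell and summed per well.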
# On the % scale 0 is the no-effect control and ±100 the full control effect; potency means the concentration at half of the fitted maximal effect; tags describe the fitted curve by direction and shape.
Structure (SMILES),Potency,"activity, negative = inhibition"
COc1ccc(N2CCN(C(=O)c3ccc(COc4ccc5c(C)cc(=O)oc5c4)cc3)CC2)cc1,"inconclusive: 10 µM [inhibitor, partial curve, poor fit]",
O=C(Cc1ccccc1)N[C@@H](Cc1ccccc1)c1nc2ccccc2[nH]1,,inactive: -30%
CC(=O)c1ccc2c(c1)c1ccccc1n2CC(C)C,active: 7.08 µM,
C=CCC[C@@H](Cc1ccc(F)cc1)C(=O)OC[C@H](Cc1c[nH]c2ccccc12)NC(=O)[C@@H](CC=C)CC(=O)NCCO,"inconclusive: 17.8 µM [inhibitor, single point]",
COc1ccc(/C(C)=N/NC(=O)CNC(=O)/C=C\c2ccco2)cc1,,inactive: 3.83%
Cc1ccc(C)c(Cn2c(SCC(=O)NCc3ccccc3)nc3ccccc32)c1,"inconclusive: 11.2 µM [inhibitor, partial curve, poor fit]",
CN(C)c1nc(Nc2ccc(F)cc2)nc(Oc2ccc(F)cc2)n1,"inconclusive: 20 µM [inhibitor, single point]",
O=C(CCC(=O)N1CCOCC1)NCCc1ccc(Cl)cc1Cl,,inactive: -7.81%
O=C1/C(=C\c2ccc(O)c(O)c2)SC(=S)N1Cc1ccccc1,"inconclusive: 28.2 µM [inhibitor, single point]",
CC(C)C[C@H](NC(=O)N1CCn2c1nc1ccccc12)C(=O)NCCc1ccccc1,"inconclusive: 35.5 µM [inhibitor, single point]",
Brc1ccc2nc(-c3ccco3)c(Cc3ccccc3)n2c1,"inconclusive: 15.8 µM [inhibitor, single point]",
C/C(=N\NC(=O)c1ccc(N/N=C(\C)c2ccc(O)cc2)cc1)c1ccc(O)cc1,active: 12.6 µM,
CCCNC(=O)C(Cc1ccc(Cl)cc1)NC(=O)c1ccc(-c2ccccc2)cc1 (stereo not drawn),,inactive: 1.37%
O=C(Nc1c2c(nc3ccccc13)CCCC2)c1ccccc1Cl,"inconclusive: 6.31 µM [inhibitor, single point]",
COc1ccc2[nH]c3c(=O)n(/N=C/[C@H]4C(C)C=C(C)CC4C)c(=O)[nH]c3c2c1 (stereo partly drawn),active: 5.01 µM,
C/C(=N/Nc1ncc(C(F)(F)F)cc1Cl)c1ccncc1,,inactive: -13.6%
CCOC(=O)COc1cc(-n2c(=S)[nH]c3cc(OC)c(OC)cc3c2=O)c(Cl)cc1Cl,,inactive: -9.78%
COc1cc(C(=O)Nc2cc(C)c(O)c(-c3nc4ccccc4s3)c2)cc(OC)c1OC,,inactive: 0.69%
O=C(NCCO)c1ccc(-c2nnc(Nc3ccc(OC(F)(F)Cl)cc3)c3ccccc23)cc1,active: 11.2 µM,
O=C(N/N=C/c1ccc(N2CCCCC2)o1)c1ccccc1[N+](=O)[O-],"inconclusive: 10 µM [inhibitor, partial curve]",
Cn1nc(C(F)(F)F)c(-c2ccc(F)cc2)c1NC(=O)Nc1ccc(F)cc1,"inconclusive: 35.5 µM [inhibitor, partial curve, poor fit]",
COc1ccc(OC)c(-n2c(-c3cc(-c4ccccc4)n[nH]3)n[nH]c2=S)c1,"inconclusive: 0.398 µM [inhibitor, full curve, poor fit]",

Structure (SMILES),Potency,"activity, negative = inhibition"
COc1ccc(Cl)cc1NC(=O)CN(C)C(=O)CN1C(=O)NC(C)(c2ccc3ccccc3c2)C1=O (stereo not drawn),"inconclusive: 15.8 µM [inhibitor, single point]",
Clc1ccc(Cc2nc(-c3ccncc3)no2)cc1,"inconclusive: 8.91 µM [inhibitor, partial curve, poor fit]",
Cc1ccc2nc(SCC(=O)OCc3ccccc3)nc(=O)n2c1,,inactive: -23.4%
CCOC(=O)c1c(NC(=O)CSc2nnc(C)s2)sc2c1CCCCC2,,inactive: -10.3%
COc1cccc(C(=O)Nc2nc(-c3nnn(-c4cccc(Cl)c4C)c3C)ns2)c1,"inconclusive: 35.5 µM [inhibitor, single point]",
FC(F)(F)Oc1ccc(NC(=S)Nc2ccc(OC(F)(F)F)cc2)cc1,"inconclusive: 11.2 µM [inhibitor, partial curve, poor fit]",
CN(C)c1ccc(C(CNC(=O)c2ccc(C#N)cc2)c2c[nH]c3ccccc23)cc1 (stereo not drawn),"inconclusive: 22.4 µM [inhibitor, single point]",
Cc1ccc(C(=O)NCCn2cc(SCC(=O)Nc3cc(C)on3)c3ccccc32)cc1,,inactive: -21.8%
O=C(NN1C(=O)NC2(CCCCC2)C1=O)c1ccc(Cl)s1,,inactive: 24.8%
O=C(Cn1cc(S(=O)(=O)Cc2ccccc2F)c2ccccc21)Nc1ccc(F)c(Cl)c1,"inconclusive: 7.08 µM [inhibitor, full curve, poor fit]",
COc1ccc(CNc2ncnc3c2c(-c2ccccc2)cn3-c2ccc(C)c(Cl)c2)cc1,,inactive: 14.4%
Cc1ccc(C(=O)OCc2cc(=O)n3nc(CC(C)C)sc3n2)cc1,"inconclusive: 4.47 µM [inhibitor, partial curve, poor fit]",
Cc1ccc([N+](=O)[O-])cc1-c1[nH]c(-c2ccc(O)c(O)c2)nc1-c1ccccc1,"inconclusive: 25.1 µM [inhibitor, single point]",
CCCn1cc(S(=O)(=O)c2ccc(C)cc2)c(=O)c2cc(OC)ccc21,,inactive: -0.674%
COc1cc2c3c(c1)C1(C(=O)N3C(C)(C)C=C2C)C(C#N)=C(N)Oc2cc(O)ccc21 (stereo not drawn),"inconclusive: 11.2 µM [inhibitor, single point]",
c1ccc(NC2=NCCN2CCC2CCCC2)cc1,,inactive: -6.32%
O=C(NCCc1nc2ccccc2n1Cc1ccc(Cl)cc1)c1ccccc1,"inconclusive: 35.5 µM [inhibitor, single point]",
COc1ccc(N2C(=O)CCC(C(C)=O)=C2C)cc1,"inconclusive: 8.91 µM [inhibitor, partial curve, poor fit]",
O=S(=O)(NCCc1ccc2c(c1)OCCO2)c1cccs1,,inactive: -16.8%
COc1ccc(O)c(/C=N/NC(=S)Nc2cccc(S(=O)(=O)N(C)C)c2)c1,"inconclusive: 20 µM [inhibitor, single point]",
COc1cccc(CNCc2c(C(=O)O)n(Cc3ccc(C)cc3)c3cc(C)ccc23)c1OC,"inconclusive: 11.2 µM [inhibitor, partial curve, poor fit]",
